From PubChem BioAssay AID1508623 (National Center for Advancing Translational Sciences (NCATS), 2021)
Screen size: about 48,000 compounds; about 450 (0.94%) were called active. The shares of active, inactive and inconclusive entries below differ from those in the screen. Calls follow the shape of the dose curve; as a rule, active = well fitted inhibition curve with a large enough effect; inconclusive = small, poorly fitted or top-dose-only effect; inactive = no such curve, though single readings can be large or run the other way. A potency beside an inconclusive call is a rough fit, not a confirmed value.

Assay: Primary qHTS for Identification of Small Molecule Inhibitors of Huntingtin Promoter Activity; also: nearly all actives have a fitted effect of over 50% in size
Conditions: HEK293 HTT promoter firefly luciferase reporter (activity 0% = vehicle and -100% = no light), 24 h; activity change, negative = inhibition: at 57.5 µM (top of the series)
How it was run: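 Firefly luciferase readout (Dual-Glo, 10 min RT) after 24 h, 37 °C compound exposure (final up to 57.5 uM) of HEK293 reporter cells cultured 24 h beforehand; PTC124 at 50 uM final as control inhibitor; activity scaled vehicle 0%, zero RLU -100%.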
Potency is read from the fitted curve at half-maximal effect; tags tell the direction and shape of the fitted curve.

Potency, inconclusive:
O=C(CN1C(=O)CCc2cc(S(=O)(=O)N3CCCCC3)ccc21)NCc1ccc(Cl)cc1 11.2 µM [inhibitor, partial curve, poor fit], Cc1ccc(C)c(N2CCN(C(=O)CS(=O)(=O)c3cccc4nsnc34)CC2)c1 31.6 µM [inhibitor, partial curve, poor fit], O=C(Cn1c(-c2cccs2)cc2cc(F)ccc21)NCCCN1CCN(c2ccc(F)cc2)CC1 35.5 µM [inhibitor, single point], CC1=C(C(=O)OCc2ccc(C)cc2)C(c2cccc(F)c2F)CC(=O)N1 (centres undefined) 35.5 µM [inhibitor, single point], COc1ccc(C2C=C(c3ccc(Br)cc3)Nc3nnnn32)c(OC)c1 (centres undefined) 17.8 µM [inhibitor, single point], Cc1cc(C)c(NC(=O)c2c(C)nn(-c3ccc(F)cc3)c2-n2cccc2)c(C)c1 14.1 µM [inhibitor, partial curve, poor fit], O=C(CCSCc1ccc(Cl)cc1)NCc1ccc(F)cc1Cl 22.4 µM [inhibitor, single point], O=C(NC1CCCCC1)c1ccc(CSc2nc3ccncc3n2Cc2ccc(F)cc2)cc1 35.5 µM [inhibitor, single point], COc1cccc(CNC(=O)CN2C(=O)N(c3cccc(Cl)c3)S(=O)(=O)c3ccccc32)c1OC 35.5 µM [inhibitor, single point], CCOc1ccc(NC(=O)Cn2c(=O)n(CCCCC(=O)NCc3ccc4c(c3)OCO4)c(=O)c3ccccc32)cc1 39.8 µM [inhibitor, single point], COc1ccc(S(=O)(=O)c2nnn(-c3ccc(C(C)C)cc3)c2C)cc1 14.1 µM [inhibitor, partial curve], Cn1c(=O)c2c(ncn2Cc2ccc(Cl)cc2)n(C)c1=O 22.4 µM [inhibitor, partial curve, poor fit], CN1CCC(COc2cnc(-c3cccc(Cn4nc(-c5cccc(C#N)c5)ccc4=O)c3)nc2)CC1 12.2 µM [inhibitor, partial curve], Cc1ccc(N2CCN(C(=O)c3cnn(-c4ccc(C)c(C)c4)c3C3CCNCC3)CC2)c(C)c1 25.1 µM [inhibitor, single point], Cc1ccc(-n2ncc3c(NC4CCCCC4)ncnc32)cc1Cl 1.26 µM [inhibitor, partial curve, poor fit], O=C(CSc1nccn1Cc1ccco1)Nc1cc(C(F)(F)F)ccc1Cl 39.8 µM [inhibitor, partial curve, poor fit], CC(C)c1cc(C(=O)N2Cc3ccc(CN4CCN(C)CC4)cc3C2)c(O)cc1O 1.72 µM [inhibitor, full curve], CSc1ncc(Cl)c(C(=O)Nc2ccc(S(=O)(=O)N3CCC(C)CC3)cc2)n1 17.8 µM [inhibitor, partial curve, poor fit], O=C(NCCn1cc(SCc2ccc(F)cc2)c2ccccc21)c1c(F)cccc1F 39.8 µM [inhibitor, single point], COc1ccc2c(c1)CC(NC(=O)Nc1cc(Cl)ccc1OC)CO2 (centres undefined) 39.8 µM [inhibitor, single point], CSc1nc(C)cc(Nc2c(C)cc(C)cc2C)n1 25.1 µM [inhibitor, single point], CC(=O)c1ccc(N2CCN(S(=O)(=O)c3ccc4c(c3)CC(C)N4C(=O)C3CCC3)CC2)cc1 (centres undefined) 1.41 µM [inhibitor, partial curve, poor fit], O=C(CCSCc1cnn(-c2ccccc2)c1-n1cccc1)NCc1ccccc1F 25.1 µM [inhibitor, single point], COc1ccccc1C(=O)Nc1c(C(=O)N(CCN(C)C)Cc2ccco2)oc2ccccc12 35.5 µM [inhibitor, single point], COc1ccc(OCC2c3cc(OC)c(OC)cc3CCN2C(=O)c2ccc(F)cc2)cc1 (centres undefined) 25.1 µM [inhibitor, partial curve, poor fit], Cc1ccc(-c2cn3c(n2)sc2cc(C(=O)NCCCN4CCCCC4)ccc23)cc1 39.8 µM [inhibitor, single point], O=S(=O)(NCCc1csc2nc(-c3ccc(F)cc3)nn12)c1ccc(Br)cc1 28.2 µM [inhibitor, single point], CCOC(=O)c1ccc(NC(=O)CC2C(=O)N(c3cccc(OC)c3)C(=O)N2C2CCCCC2)cc1 (centres undefined) 28.2 µM [inhibitor, single point], Cc1ccc(OCCn2cc(C(=O)C3CCCCC3)c3ccccc32)cc1 25.1 µM [inhibitor, partial curve, poor fit], COc1cccc(NC(=O)/C(C#N)=C\c2cn(Cc3ccc(C)cc3)c3ccccc23)c1 22.4 µM [inhibitor, partial curve, poor fit], O=C(c1ccc(C(F)(F)F)cc1)N1CCC(c2nc(-c3ccc(S(=O)(=O)N4CCCC4)cc3)no2)CC1 2.82 µM [inhibitor, single point], Cc1ccc(C)c(NC(=O)Cn2cc(C(=O)C3CCCCC3)c3ccccc32)c1 31.6 µM [inhibitor, single point], Cc1ccc2[nH]c3c(=O)n(CC(=O)N(C)c4cc(Cl)ccc4C)ncc3c2c1 28.2 µM [inhibitor, single point], O=C(c1ccc2c(c1)N(Cc1cccc(Cl)c1)C(=O)c1ccccc1S2(=O)=O)N1CCCCC1 31.6 µM [inhibitor, partial curve, poor fit], CCOC(=O)c1c(C)[nH]c(C)c1S(=O)(=O)N1CCC(C(=O)N2CCN(c3ccc(Cl)cc3)CC2)CC1 28.2 µM [inhibitor, partial curve, poor fit], CC1=C(c2ccc(C)c(C)c2)S(=O)(=O)N=C1N1CCC(C(=O)NCCc2ccc(Cl)cc2)CC1 15.8 µM [inhibitor, partial curve, poor fit], CCOc1ccc(NC(=O)N2CC=C(c3c[nH]c4ccccc34)CC2)cc1 10 µM [inhibitor, partial curve, poor fit], CCc1ccc(NC(=O)c2cc(S(=O)(=O)N3CCCCCC3)ccc2F)cc1 20 µM [inhibitor, partial curve, poor fit], CCCCN1CC(c2nc3ccccc3n2CCCCOc2ccc(C)cc2C)CC1=O (centres undefined) 35.5 µM [inhibitor, single point], Cc1ccc(-n2ncc3c(NCCCN4CCOCC4)ncnc32)cc1Cl 12.6 µM [inhibitor, partial curve, poor fit], COc1cccc(N2CCN(c3c4c(nc5nncn35)CCC4)CC2)c1 14.1 µM [inhibitor, partial curve, poor fit], CCOc1ccccc1CNC(=O)Cc1ccc(NC(=O)N2CCCCc3ccccc32)cc1 28.2 µM [inhibitor, single point], COc1ccccc1CNC(=O)c1cccc(N2CCCS2(=O)=O)c1 2.51 µM [inhibitor, partial curve], COc1ccc(-c2noc(N(c3ccc(F)c(Cl)c3)c3nc(-c4ccc(OC)c(OC)c4)no3)n2)cc1OC 31.6 µM [inhibitor, partial curve, poor fit], CCOC(=O)c1c(C)n(-c2ccccc2)c2ccc(OC(=O)c3ccccc3NC(=O)C(C)C)cc12 28.2 µM [inhibitor, partial curve, poor fit]

Activity change, negative = inhibition, inactive:
Cc1ccc(CNC(=O)c2ccccc2NC(=O)c2nsc3ccccc23)cc1 41.8%, NC(=O)c1nn2c(C(F)(F)F)cc(-c3ccc(Br)cc3)nc2c1Cl -32.4%, Cc1ccc(C)c(N(C)C(=O)Cc2c(C(=O)O)[nH]c3ccc(Cl)cc23)c1 -21.6%, CC(C)(C)CC(C)(C)c1ccc(OCC(=O)Nc2ccc(S(=O)(=O)Nc3ncccn3)cc2)cc1 -15.9%, Cc1ccccc1Cn1c(=O)n(CC2CCC(C(=O)N3CCOCC3)CC2)c(=O)c2sccc21 (centres undefined) -6.81%, COC(=O)c1ccc(NS(=O)(=O)c2ccc(-n3cccn3)cc2)cc1 -17%, C=Cc1ccc(Cn2c(C(=O)O)c(CNCc3cccs3)c3ccc(C)cc32)cc1 -27.9%, O=C1NC(=O)C(=Cc2cccc(C(F)(F)F)c2)S1 -7.73%, COc1cc(Cl)c(C)cc1NC(=O)c1cc2ccc3cccnc3c2[nH]1 -27%, CC(=O)OCc1cnc(C)c2oc(=O)c(C(=O)Nc3cccc(F)c3)cc12 -3.8%, Nc1ncnc2c1c(-c1cccc(OCc3ccccc3)c1)cn2C1CC(CN2CCC2)C1 (centres undefined) -7.82%, CC(=O)O[C@H]1C[C@@H]2CC[C@H]3[C@H]4C[C@H]([N+]5(C)CCCCC5)[C@@H](OC(C)=O)[C@@]4(C)CC[C@@H]3[C@@]2(C)C[C@H]1N1CCCCC1 -2.92%, Cc1cccc(NC(=O)Nc2ccc(F)cc2)n1 17.1%, O=C1OC2(c3ccc(O)cc3Oc3cc(O)ccc32)c2ccccc21 9.27%
